Assay results reported in the supplement of paper PMC10338343.
± gives the standard deviation. Over roughly 6,600 sequences, “pre-steady-state target cleavage rate” has its median near 0.07; the highest 2% begin near 0.72. The entries are a selection whose mix differs from that of the whole data set.

system: MIWI (PIWIL1) piRISC loaded with Kctd7 piRNA (30 nt); experiment: pre-steady-state target cleavage rate (min^-1); MIWI and MILI are mouse PIWI proteins and EfPiwi is from a freshwater sponge; tags in brackets are library labels; higher = faster piRNA-guided slicing of the target; conditions: guide: Kctd7 piRNA 5'p-UGUUAAUCUCUCAGAGAAGGUGACAGUGAU; auxiliary factor: 500 nM mouse GTSF1
Procedure: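 Cleave-'n-Seq: a library of target RNAs (target site embedded in constant flanks, ACAGCATTCCGCGTTAGTGATATCCG... 5' flank; DNA-blocked outside the site) at 0.1 nM was incubated with 1 nM active mouse MILI or MIWI piRISC (synthetic 5'-monophosphorylated piRNA guide) with or without 500 nM mouse GTSF1 at 33 °C for 1 min to 16 h. Uncleaved targets were sequenced and normalised to non-target controls, and the pooled three trials were fitted to a burst-and-steady-state model to give the pre-steady-state cleavage rate (min^-1; k3 is constrained to at most 1e-4). Sequence is the target site only; target names encode pairing extent (gX:gY) and contiguous / 1-mismatch / 2-mismatch / bulge geometry. Fits with R² ≤ 0 are excluded.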

Sequence | pre-steady-state target cleavage rate
UAGACUGUCACCUUCUCACAGAGAUUAACA | 0.0126 ± 0.004
UACACUAUCACCUUCUCUGAGAGAUUAACA | 0.478 ± 0.034
UAGUGAGUCACCAUCUCUGAGAGAUUAAGA | 0.0742 ± 0.019
UUCACUGUCACCUUCUCACUGAGAUUAACA | 0.00774 ± 0.0042
UAGUGACAGAUCUUCUCUGAGAGAUUAACA | 0.0808 ± 0.0058
AUCACUGGUCACCUUCUCUGAGAGAUUAACA | 0.742 ± 0.047
UAGUGAGUCAGCAUCUCUGAGAGAUUAACA | 0.25 ± 0.023
UAGACUGUCACCUUCUCUGAGCAGAUUAACA | 0.00359 ± 0.0018
AUCACUGACACCUUGUCUGAGAGAUUAACA | 0.203 ± 0.029
UAGACUGUAACCUUCUCUGAGAGAUUAACA | 0.599 ± 0.038
UACACUGUCACCUAGACUGAGAGAUUAACA | 0.0292 ± 0.0072
UAGUGAGUCACCUUCUCUGAGUCUUUUUGA | 0.0138 ± 0.0072
UUGACUCUCACCUUCUCUGAGAGAUUAACA | 0.528 ± 0.025
UUCAGUGUCACCUUCUCUGAGAGAUUAACA | 0.578 ± 0.027
UAGUGUGUCACCUUCUCUGAGACUAUAACA | 0.00618 ± 0.0039
UAGACUGUCACCUUGACUGAGAGAUUAAGA | 0.00965 ± 0.0044
UACACUCUGACCUUCUCUGAGAGAUUAACA | 0.29 ± 0.017
UAGUGACUCACCUUCUCUCAGAGUUUAACA | 0.0221 ± 0.0044
UAGUGUGUCACCUUCUGUGAGUGAUUAACA | 0.0182 ± 0.0067
UAGUCUGUGACCUUCUCUGAGAGAUUAAGA | 0.124 ± 0.017
UAGACUGUCACCUUCUCAGAGAGAUUAACA | 0.334 ± 0.023
UAGUGACAGUGGAACUCUGAGACUAAUUGA [g9:g16:cont:t1A] | 0.0143 ± 0.013
UAGUGACACAGCUUCUCUGAGAGAUUAAGA | 0.0573 ± 0.0086
UAGUGUGUCACCUUCAGUGAGAGAUUAACA | 0.101 ± 0.013

Sequence | pre-steady-state target cleavage rate
UAGACUGUCACCUUCUCUGAGAGAUUUAGA | 0.0419 ± 0.011
UACACUGUCACCUUCUCUGAGAGAUUAGACA | 0.12 ± 0.023
UAGUGAGUCACCUUCUCUGUGUGAUUAACA | 0.00823 ± 0.005
UACACUGUCACCUUCUCUGAGACAUUAACA | 0.119 ± 0.014
UAGUCUGUCAGCUUCUCUGAGAGAUUAAGA | 0.065 ± 0.011
UAGUGUGACACCUUCUCUGAGAGUUUAACA | 0.197 ± 0.043
UACAGACUCACCUUCUCUGAGAGAUAUUGA | 0.018 ± 0.0056
UAGUGACAGUCCUUCUCUGAGAGAUUAACA [g2:g20:cont:t1A] | 0.091 ± 0.011
UAGUGACAGUCCUUCUCUGAGAGAUUAUCA | 0.0245 ± 0.0042
UACACUGUACCUUCUCUGAGAGAUUAACA | 0.597 ± 0.029
UAGUGAGUCACCAUCUCAGAGAGAUUAACA | 0.0923 ± 0.008
UAGUGACACACCUUCUCUGAGAGAUUAGCA | 0.153 ± 0.026
AUCACUGUCACCUUCUCUGAGAGAUUUACA | 0.471 ± 0.059
UAGACUGUCACGAUCUCUGAGAGAUUAACA | 0.601 ± 0.045
UACACUGUGUGCUUCUCUGAGAGAUUAAGA | 0.00596 ± 0.0024
UAGUGUGUCACCUACUCUGACAGAUUAACA | 0.217 ± 0.023
UAGUCAGUCACCUUCUCAGAGAGAUUAACA | 0.496 ± 0.025
UAGACUGUCACCUUGUCUGACAGAUUAACA | 0.268 ± 0.029
UAGUGACACACCUUCUCUGGGAGAUUAACA | 0.288 ± 0.021
UAGUGACAGACCUUUUCUGAGAGAUUAACA | 0.0444 ± 0.0078
AUCACUGUCACCUUCUCUGAGAGAAAUUGA | 0.0816 ± 0.024
AUCACUGUCUCCUUCUCUGAGAGAUUAUCA | 0.261 ± 0.038
AUCACUGUUACCUUCUCUGAGAGAUUAACA | 0.553 ± 0.033
UAGUGACACACGUUCUCUGAGAGAAUAACA | 0.0314 ± 0.0073

Sequence | pre-steady-state target cleavage rate
UAGUGACAGACCUUCUCUGAGAGAUAAUCA | 0.00999 ± 0.005
UAGUGAGUCACCCUCUCUGAGAGAUUAACA | 0.682 ± 0.038
UAGUGACAGUGGAAGAGACUCAGAUAAACA | < 0.0001
UAGUGACACACCUUGUGUGAGAGAUUAACA | 0.0157 ± 0.0037
AUCACUGUGACCUUCUCUGUGAGAUUAACA | 0.254 ± 0.013
AUCACUGUCACCUUCUCUCUCAGAUUUUGA | 0.00682 ± 0.0034
UAGUGUGUCACCUACUCUGAGAGAUUAUGA | 0.0323 ± 0.011
UAGUGAGUCACCAUCUCUGAGAGAUUUACA | 0.247 ± 0.036
AUCUCAGUCACCUUCUCUGAGAGAUUAACA | 0.35 ± 0.038
UUCACUGUCACCUUCACUCAGAGAUUAACA | 0.0354 ± 0.0063
UACACUGUCACCUUCUCUGAGAAUUAACA | 0.0839 ± 0.025
UACACUCUCACCUACUCUGAGAGAUUAACA | 0.397 ± 0.026
AUCAGACUCACCUUCUCUGAGAGAUUAUGA | 0.0489 ± 0.0098
AUCACUGUCACCUUCUCUAAGAGAUUAACA | 0.482 ± 0.017
UAGUGUGUGAGCUUCUCUGAGAGAUUAACA | 0.251 ± 0.022
UAGUGACAGUCCUUCUGUGAGAGAUUAUCA | 0.0136 ± 0.0044
AUCACAGUCACCUUCUCUGAGAGAUAAACA | 0.418 ± 0.042
UAGUCUGUCACCUUCUCUGAGAUAUUAACA | 0.29 ± 0.027
AUCACUGUCUGCUUCUCUGAGAGAUUAUGA | 0.0483 ± 0.0098
AUCACUGAGUCCUUCUCUGAGAGAUAUUGA | 0.0168 ± 0.0055
UAGUGUAGUCACCUUCUCUGAGAGAUUAACA | 0.678 ± 0.032
UUGAGUGUCACCUUCUCUGAGAGAUUAACA | 0.763 ± 0.034
UAGUGAGUGACCUUCACUGAGAGAUUAACA | 0.347 ± 0.027
UAGACUUUCACCUUCUCUGAGAGAUUAACA | 0.612 ± 0.033
